Where “and” joins values, the source holds several entries; their conditions need not be identical. Identical values can stand only once. About 4,500 (2.2%) of roughly 200,000 compounds were called active. The shares of active, inactive and inconclusive entries below differ from those in the screen. Calls come from the whole dose curve; as a rule, active = well fitted inhibition curve with a large enough effect; inconclusive = small, poorly fitted or top-dose-only effect, or effect the other way; inactive = flat fitted curve, though single readings scatter. A potency beside an inconclusive call is a rough fit, not a confirmed value.
Biological target: Cruzipain (Trypanosoma cruzi) (UniProt P25779)
Test: qHTS Assay for Promiscuous and Specific Inhibitors of Cruzain (without detergent); note: nearly all actives have a fitted effect of over 40% in size;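 for max response, negative = inhibition: plate controls were enzyme without inhibitor for no effect and buffer without enzyme for full effect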
Settings: purified cruzain, Z-FR-AMC fluorescence, no detergent
Summary of the method: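 Detergent-free condition (0.00005% Triton X-100) in acetate buffer pH 5.5 with DTT. 1.5 nM enzyme and compound were pre-mixed 15 min, then 2 uM Z-FR-AMC substrate added; reaction progress from fluorescence change between first and third reads (60 s).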
Potency is the fitted concentration of half-maximal effect; tags give direction and shape of the fitted curve.

UniProt P25779, sequence (P25779 whole entry, looked up): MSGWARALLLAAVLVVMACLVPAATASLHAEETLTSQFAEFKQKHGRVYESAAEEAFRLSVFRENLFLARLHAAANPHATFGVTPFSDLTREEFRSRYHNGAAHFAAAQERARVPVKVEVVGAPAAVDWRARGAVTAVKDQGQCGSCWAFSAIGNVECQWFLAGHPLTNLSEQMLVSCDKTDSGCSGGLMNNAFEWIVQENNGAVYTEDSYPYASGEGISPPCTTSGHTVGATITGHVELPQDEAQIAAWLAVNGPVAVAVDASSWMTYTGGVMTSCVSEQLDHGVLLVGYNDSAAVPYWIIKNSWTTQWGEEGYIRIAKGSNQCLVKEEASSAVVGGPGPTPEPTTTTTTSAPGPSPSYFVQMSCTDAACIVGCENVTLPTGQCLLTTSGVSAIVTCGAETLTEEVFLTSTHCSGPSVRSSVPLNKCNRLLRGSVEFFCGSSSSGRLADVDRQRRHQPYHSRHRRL

Compound | Potency | max response, negative = inhibition
Cc1ccc(SCc2nc3ccccc3n2CC(=O)Nc2ccc(Cl)cc2)cc1 | inconclusive: 7.94 µM [inhibitor, single point] | 
CCN(CC)CCOc1ccc(/C(=C(\Cl)c2ccccc2)c2ccccc2)cc1 |  | inactive: 0.876% and inactive: 2.33%
Cc1nc(-c2ccccc2)sc1-c1ccc(SCC(=O)Nc2ccc(F)cc2F)nn1 |  | inactive: -2.54%
O=C(c1ccco1)c1cn(CC(=O)N2CCCc3ccccc32)c2ccccc12 | inconclusive: 20 µM [inhibitor, partial curve] | 
Cc1nnc(NC(=O)CCSc2ccccc2)s1 | inconclusive: 39.8 µM [inhibitor, single point] | 
COc1ccc(C2=NOC3(CC(=O)N(c4ccc(F)cc4)C3=O)C2)c(OC)c1 (stereo not drawn) | inconclusive: 25.1 µM [inhibitor, single point] | 
Cc1ccc(N(Cc2ccc(C(=O)Nc3ccccc3C(=O)NCc3ccco3)cc2)S(C)(=O)=O)cc1C | inconclusive: 39.8 µM [inhibitor, single point] | 
CC(=O)NNC(=O)CC(=O)Nc1nc(C23CC4CC(CC(C4)C2)C3)cs1 | inconclusive: 39.8 µM [activator, single point] | 
CCOC(=O)Cn1c(=O)cc(-c2ccccc2)c2c(C)nn(C)c21 | inconclusive: 39.8 µM [activator, single point] | 
C[C@@H](C(=O)N[C@@H](CO)Cc1ccccc1)[C@@H]1C[C@@]1(C)[C@@H](NC(=O)OCc1ccccc1)c1ccccc1 | inconclusive: 39.8 µM [activator, single point] | 
Cc1cc(C(=O)Nc2nc(C)c(C(=O)N(C)C)s2)ccc1[N+](=O)[O-] |  | inactive: -4.55%
Cn1c(=O)c2c3c(sc2n2c(SCc4ccc5c(c4)OCO5)nnc12)COC(C)(C)C3 |  | inactive: -4.52%
COc1cc2c(cc1OC)C(C(=O)N1CCN(c3ccccc3)CC1)C(c1cccs1)N(C)C2=O (stereo not drawn) | inconclusive: 39.8 µM [activator, single point] | 
CC(C)Oc1ccc(CNC(=O)c2ccc(NC(=O)c3nsc4ccccc34)cc2)cc1 |  | inactive: -18%
O=C(Nc1ccc(NC(=O)c2cccs2)cc1)c1ccc(Br)cc1 |  | inactive: -16.1%
O=C(O)CSc1n[nH]c(=O)[nH]c1=O |  | inactive: 0.922%
COc1ccc(S(=O)(=O)N2c3ccc(Cl)cc3[C@](O)(c3ccccc3Cl)[C@@H]2C(=O)N2CCC[C@H]2C(N)=O)cc1OC | inconclusive: 39.8 µM [activator, single point] | 
CCOC(=O)C1=C(C)C2C3C(=O)N(c4cc(C)ccc4C)C(=O)C3C1(C)C1C(=O)N(c3cc(C)ccc3C)C(=O)C21 (stereo not drawn) | inconclusive: 20 µM [activator, partial curve] | 

Source: PubChem BioAssay AID1476 (National Center for Advancing Translational Sciences (NCATS), 2009)
